Screen size: about 410,000 compounds; about 6,400 (1.6%) were called active. Inconclusive results, whose numbers are uncertain, are shown with a selection of clear calls. Calls follow the shape of the dose curve; as a rule, active = well fitted inhibition curve with a large enough effect; inconclusive = small, poorly fitted or top-dose-only effect; inactive = no such curve, though single readings can be large or run the other way. Potencies of inconclusive entries are doubtful fits and often do not repeat.
Molecular target: Glucagon-like peptide 1 receptor (Homo sapiens) (UniProt P43220)
Sequence of UniProt P43220 (P43220 whole entry, looked up): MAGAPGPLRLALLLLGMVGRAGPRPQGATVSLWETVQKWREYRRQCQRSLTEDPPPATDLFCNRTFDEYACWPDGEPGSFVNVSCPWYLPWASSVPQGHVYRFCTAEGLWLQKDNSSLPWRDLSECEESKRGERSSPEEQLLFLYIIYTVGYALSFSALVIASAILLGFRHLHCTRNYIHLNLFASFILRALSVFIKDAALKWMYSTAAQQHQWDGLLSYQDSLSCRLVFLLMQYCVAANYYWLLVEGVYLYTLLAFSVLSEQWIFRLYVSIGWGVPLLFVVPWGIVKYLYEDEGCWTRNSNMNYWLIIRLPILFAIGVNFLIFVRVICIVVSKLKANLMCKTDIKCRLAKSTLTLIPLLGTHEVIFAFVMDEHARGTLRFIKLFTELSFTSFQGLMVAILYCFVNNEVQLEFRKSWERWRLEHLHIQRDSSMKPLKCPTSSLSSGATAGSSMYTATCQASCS
Assay: qHTS of GLP-1 Receptor Inverse Agonists (Inhibition Mode); also: nearly all actives have a fitted effect of over 55% in size
Conditions: HEK293 GLP-1R CRE-luciferase, luminescence, 24 h, GLP-1R form is constitutively active; series mostly up to 38.3 µM
Procedure, shortened: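 GLP-1R inverse agonism mode: basal reporter luminescence in engineered HEK293 cells measured after one day of compound exposure at 37 deg C, with a 12 min room-temperature detection step.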
Potency is read from the fitted curve at half-maximal effect; tags tell the direction and shape of the fitted curve.

Potency, inactive:
CN1CCN(c2ccc(CNC[C@H]3O[C@@H](n4cnc5c(=O)[nH]c(N)nc54)[C@H](O)[C@@H]3O)c(F)c2)CC1
Cc1ccccc1N1C(=O)CC(N(O)c2ccccc2)C1=O (centres undefined)
Cc1ccc(NC(=O)Cn2c(-c3cncs3)nc3ccccc32)c(Br)c1
COc1ccc(C2C(C#N)=C(N)N(N(C)C)C3=C2C(=O)CC(C)(C)C3)cc1OC (centres undefined)
COc1ccc(CCN2C(=O)CN(C3CCCCCC3)C(=O)C2c2ccc(OC(C)C)c(OC)c2)cc1OC (centres undefined)
COc1ccccc1C(=O)Nc1ccc(C(=O)OCc2cc(=O)n3nc(C)sc3n2)cc1
CCCCCn1c(=O)[nH]c2cc(C(=O)O)ccc2c1=O
O=C(CNC(=O)C1CC(=O)N(c2cccc3ccccc23)C1)Nc1ccccc1Br (centres undefined)
COc1ccc(C)cc1NC(=O)CCS(=O)(=O)c1ccc2c(c1)oc(=O)n2C
Cc1cc2c(cc1NS(=O)(=O)c1cccc(C#N)c1)n(C)c(=O)c(=O)n2C
CCc1cccc(C)c1NC(=O)Cn1nnc(-c2nc(-c3ccccc3F)no2)c1N
COCCN(CCOC)C(=O)N1CCOCC1

Potency, active:
O[C@H]1CN(Cc2cccs2)[C@@H](c2ccccc2)C[C@@H]1n1cc(-c2ccc(F)cc2)nn1 10 µM
COc1ccc(CCN(C(=O)C(F)(F)F)C(C(=O)NC2CCCCC2)c2cccs2)cc1 (centres undefined) 6.31 µM
Cc1ccc(NC(=O)Cc2ccc(-c3ccccc3)cc2)nc1 10 µM
C=C(C)CNC(=S)N/N=C/c1ccco1 4.47 µM

Potency, inconclusive:
O=C(NC1CCN(Cc2ccccc2)CC1)c1cc(Br)c(Br)[nH]1 0.316 µM [inhibitor, full curve, poor fit]
CCOc1ccc(CN2CCN(Cc3cccn3-c3cccnc3)CC2CCO)cc1 (centres undefined) 8.91 µM [inhibitor, partial curve]
CCOc1nc(-c2ccccc2)ccc1-c1noc(COc2ccccc2)n1 28.2 µM [inhibitor, single point]
Cc1cc(OCCn2ccnc2)cc(C)c1Cl 14.1 µM [inhibitor, single point]
O=C1C=C(c2cccc(Cl)c2O)C[C@@H](c2ccc(Cl)cc2)C1 22.4 µM [inhibitor, single point]
CN(CC(=O)Nc1ccc(Cl)c(C(F)(F)F)c1)C(=O)C1CSC2(C)CCC(=O)N12 (centres undefined) 28.2 µM [inhibitor, single point]
O=C(c1cccc(Br)c1)N1CCCc2ccccc21 28.2 µM [inhibitor, single point]
O=C(CCSc1nc(-c2ccccc2)c(-c2ccccc2)o1)N1CCCCC1 7.94 µM [inhibitor, partial curve, poor fit]
O=C(CNC(=O)c1ccco1)N/N=C/c1cc(Br)ccc1O 31.6 µM [inhibitor, single point]
Cc1ccccc1NC(=O)c1nc[nH]c1C(=O)NCc1ccccc1 11.2 µM [inhibitor, partial curve, poor fit]
COc1ccc(-n2cnc(N)c2C(=O)c2cccc([N+](=O)[O-])c2)cc1 8.91 µM [inhibitor, partial curve, poor fit]
O=C(CSc1nc2ccccc2nc1N1CCOCC1)Nc1ccccc1F 10 µM [inhibitor, partial curve, poor fit]
Cc1ccc(CNC(=O)CNS(=O)(=O)c2ccc(Br)s2)cc1 28.2 µM [inhibitor, single point]
CCCCC[C@@H]1C=C(C(=O)O)[C@H](c2ccc(C#N)cc2)N1S(=O)(=O)c1ccc(C)cc1 10 µM [inhibitor, partial curve, poor fit]
CC(=O)NC(c1cccc(F)c1)c1nc(/C=C/c2ccccc2)cs1 (centres undefined) 20 µM [inhibitor, single point]
CC1(C)Cc2cccc(OCC(O)CN3CCN(c4ccccn4)CC3)c2O1 (centres undefined) 10 µM [inhibitor, partial curve]
OC1(c2cccc(C(F)(F)F)c2)CCN(Cc2nnnn2Cc2ccccc2)CC1 8.91 µM [inhibitor, partial curve, poor fit]
COC(=O)C1=CN(c2cccc(OCc3ccccc3)c2)C(N)=C(C#N)C1c1cccc(F)c1 (centres undefined) 12.6 µM [inhibitor, single point]
Cc1ccc(S(=O)(=O)N2Cc3ccccc3CC2C(=O)Nc2ccc3c(c2)OCO3)cc1 (centres undefined) 12.6 µM [inhibitor, single point]
CC(C)N=C(N)N=C(N)Nc1ccc(Cl)cc1 11.2 µM [inhibitor, partial curve, poor fit]
O=C(CSc1nccn1-c1cccc(Cl)c1)NC1CCCC1 5.01 µM [inhibitor, full curve, poor fit]
c1ccc(COc2cccc(CNCc3cccnc3)c2)cc1 10 µM [inhibitor, partial curve]
Cc1ccc(C(CCN)c2ccco2)cc1 (centres undefined) 11.2 µM [inhibitor, partial curve]
Cc1cccc(C2=NN(c3ccc(Br)cc3)[C@@H](C(=O)N3CCOC3=O)[C@@H]2c2ccccc2)c1 11.2 µM [inhibitor, partial curve, poor fit]
CCNC(=S)NN=C1CCC(C(C)(C)C)CC1 (centres undefined) 11.2 µM [inhibitor, partial curve, poor fit]
CCOc1cc(NC(=S)NCC2CCCO2)c(OCC)cc1NC(=O)c1cccc(F)c1 (centres undefined) 12.6 µM [inhibitor, partial curve, poor fit]
O=C(Nc1ccc(F)c([N+](=O)[O-])c1)C1CC(=O)N(Cc2ccccc2)C1 (centres undefined) 12.6 µM [inhibitor, single point]
CC(C)Cn1c(N)c(C(=O)COC(=O)c2cc3ccccc3cc2O)c(=O)n(C)c1=O 2 µM [inhibitor, partial curve, poor fit]
CC1CCCCC1NC(=S)Nc1cccc(S(=O)(=O)N(C)C)c1 (centres undefined) 11.2 µM [inhibitor, partial curve, poor fit]
COc1ccc(O)c(C(=O)c2cc(C(=O)NCCc3ccccc3)c(=O)n(CCc3ccccc3)c2)c1 5.62 µM [inhibitor, full curve, poor fit]
O=C(Nc1cccnc1Cl)C1c2ccccc2Oc2ccccc21 1.12 µM [inhibitor, full curve]
COc1cc(OC)c(-c2oc3ccccc3c(=O)c2O)c(OC)c1 8.91 µM [inhibitor, partial curve, poor fit]
C=CCc1c(Cl)nc(C)nc1NCc1ccccc1 8.91 µM [inhibitor, single point]
c1ccc2c(c1)NC(c1ccncc1)n1c-2nc2ccccc21 (centres undefined) 28.2 µM [inhibitor, single point]
O=C(CN1C(=O)NC2(CCCCCCC2)C1=O)N1CCc2ccccc2C1 28.2 µM [inhibitor, single point]
COc1ccc(CCNC(=O)c2ccc(Cn3c(=O)c4ccccc4n(Cc4cccc(F)c4)c3=O)cc2)cc1OC 28.2 µM [inhibitor, partial curve, poor fit]
CCN(CCO)Cc1csc2cc(C)ccc12 11.2 µM [inhibitor, partial curve, poor fit]
CC(C)c1ccc(NC(=O)C(=O)c2cn(CC(=O)N3CCCCC3)c3ccccc23)cc1 3.16 µM [inhibitor, partial curve, poor fit]
CCOC(=O)c1cc(C)n(-c2ccc(Cl)cc2)c1C 11.2 µM [inhibitor, partial curve, poor fit]
CCCCc1ccc(NC(=S)N2CCN(c3ncccn3)CC2)cc1 15.8 µM [inhibitor, single point]
C=CC[C@@H](CC(=O)N[C@H](CO)Cc1ccccc1)C(=O)N[C@@H](COC(=O)[C@@H](CC=C)CC(=O)OC(C)(C)C)Cc1ccccc1 11.2 µM [inhibitor, single point]
COCc1ccc(-c2c(-c3ccsc3)sc3ccccc23)cc1 28.2 µM [inhibitor, single point]
CC1=Nc2cc(C(=O)N3CCC(C)CC3)ccc2Sc2ccc(Cl)cc21 28.2 µM [inhibitor, single point]
CCOc1ccc(S(=O)(=O)NCC2CCCO2)c2ccccc12 (centres undefined) 11.2 µM [inhibitor, single point]
COc1cccc(CNC(=O)c2ccc(COc3ccccc3)cc2)c1 10 µM [inhibitor, partial curve]
CCCCCCC(O)(CCN1CCCCC1)c1ccccc1 (centres undefined) 10 µM [inhibitor, partial curve, poor fit]
O=C(COc1ccccc1Br)NCCC1=CCCCC1 10 µM [inhibitor, partial curve, poor fit]
CCN(CC)S(=O)(=O)c1cccc(NC(=O)c2ccc(-n3nc(C)cc3C)cc2)c1 10 µM [inhibitor, partial curve, poor fit]

From PubChem BioAssay AID624417 (National Center for Advancing Translational Sciences (NCATS), 2012)
